Article PMC12040169 (PLOS Biology, 2025)
Some of the results follow.

The compounds below were run on T1, C. trachomatis L2/434/Bu expressing GFP (CTL2-GFP). Conditions: total inclusion area; 28.5 h, 10 µM; inhibitor.
T1 construct: L2/434/Bu GFP intracellular growth in HeLa cells
Set-up: species or system HeLa; C. trachomatis total inclusion area by high-content imaging, normalised to DMSO
Outline: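 Bulk GFP and resorufin signals were read first. Wells were then fixed, stained with Hoechst and imaged to detect GFP inclusions and host nuclei. MICs followed the previously described calculation.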

| SMILES | % of control remaining |
| --- | --- |
| CN1CCC(C(=O)NC(=O)NCCOc2cccc3ccccc23)CC1 [CBK051100] | 74.0261 |
| CC(=O)Nc1ccc(S(=O)(=O)NC2(C(F)(F)F)C(=O)Nc3c2c(=O)[nH]c(=O)n3CCc2ccccc2)cc1 (centres unmarked) [CBK267937] | 94.8785 |
| Cc1cc(Br)c(O)c(C(=O)N(C)CC(=O)Nc2cc(C)on2)c1 [CBK306002] | 79.6541 |
| Cc1nn(C(C)CC(=O)NCCN2CCc3ccccc32)c(C)c1C (centres unmarked) [CBK282675] | 108.117 |
| O=C(Cn1cccc2cc(-c3ccc(F)cc3)nc1-2)N1CCOCC1 [CBK284809] | 104.452 |
| COc1ccccc1N(CC(=O)Nc1c(C)cccc1C)S(=O)(=O)c1ccc(C)cc1 [CBK264810] | 111.366 |
| N/C(=N\OC(=O)CSc1ccccc1)c1ccccn1 [CBK266056] | 99.8317 |
| COC1CCC(C(=O)N2CCC(COc3ccc(-c4ccc(S(C)(=O)=O)cc4)cn3)CC2)CC1 (centres unmarked) [CBK161995] | 65.3809 |
| CC1CCN(S(=O)(=O)c2cccc3c(S(=O)(=O)N4CCC(C)CC4)cccc23)CC1 [CBK262071] | 84.0462 |
| COc1cc(-c2cnc3cccnc3c2N)cc(OC)c1OC [CBK081190] | 80.2475 |
| O=C(O)CCC(=O)Nc1ccccc1C(=O)NC1CCCCC1 [CBK267674] | 81.8957 |
| Cc1ccc(OCC(=O)N2CCN(C(=O)c3cccs3)CC2)c([N+](=O)[O-])n1 [CBK297152] | 70.2552 |
| Cn1c(SCC(=O)Nc2cc(C(C)(C)C)no2)nnc1-c1ccc(C(C)(C)C)cc1 [CBK297133] | 82.3166 |
| CC(=O)Nc1ccc(NC(=O)Cc2n[nH]c(=S)n2Cc2ccccc2)cc1 [CBK296754] | 99.2253 |
| NC(=O)CSc1nnc(NC(=O)c2ccc(Cl)cc2Cl)s1 [CBK287627] | 124.615 |
| Cc1cccc(CC(=O)N2CCC(Cc3ccc(-c4cccc(C)c4)cc3)(C(N)=O)CC2)c1 [CBK285798] | 65.2988 |
| COc1ccc(-c2nc(C#N)c(NCCN3CCOCC3)o2)cc1 [CBK265769] | 94.6532 |
| CSc1nnc(CC2CCN(C(=O)c3ccc(C)cc3F)CC2)n1C [CBK306939] | 81.1513 |
| O=C(CO)N1CC2(CCN(CCc3c[nH]c4ccccc34)CC2)c2ccccc21 [CBK131503] | 85.9284 |
| COc1ccc2nc(NC(=O)c3ccc4c(c3)OCCO4)sc2c1 [CBK287572] | 100.25 |
| Cn1nc(C(C)(C)C)cc1NC(=O)CN1CCc2cncnc2C1 [CBK304934] | 45.8996 |
| O=C(NCc1cccnc1)N1CCN(c2ccccc2)CC1 [CBK155178] | 96.8898 |
| COc1ccc(-c2c3c(nc4sc(C(=O)N5CCOCC5)c(N)c24)CC(C)(C)CC3=O)cc1 [CBK131884] | 76.1861 |
| O=C1Nc2ccc(S(=O)(=O)NCC(O)c3ccc([N+](=O)[O-])cc3)c3cccc1c23 (centres unmarked) [CBK266745] | 96.2907 |
| Cn1cccc1C(=O)NCCNC(=O)c1cc2ccccc2[nH]1 [CBK297894] | 61.0658 |
| COc1ccc(C)cc1-n1ccc(C(=O)N2CCSCC2)n1 [CBK305972] | 75.2896 |

| SMILES | % of control remaining |
| --- | --- |
| C/C(=N\NC(=O)CCC(=O)Nc1ccccc1C)c1ccc(O)cc1O [CBK261946] | 106.135 |
| Cc1cc(C(=O)N2CC3CCCC(O)(c4cccn4C)C3C2)c(C)[nH]1 (centres unmarked) [CBK284514] | 95.1975 |
| Cc1ccc(/C=C/C(=O)O)cc1S(=O)(=O)NCCO [CBK264404] | 132.831 |
| Cc1ccc2oc([C@H]3CN(C(=O)C4CCN(C(=O)OC(C)(C)C)CC4)C[C@@H]3C(=O)O)cc2c1 [CBK001601] | 107.794 |
| O=c1n(C(c2ccccc2)c2ccccc2)ccn1S(=O)(=O)c1ccc(Oc2ccccc2)cc1 [CBK106624] | 93.9895 |
| COc1ccc(CC(=O)N2CCCC(c3nc(C)c4c(n3)N(CC3CC3)CCC4)C2)cc1 (centres unmarked) [CBK286228] | 3.477 |
| O=C(CNS(=O)(=O)c1cccc(Cl)c1)Nc1ccc(-c2nc3ccccc3s2)cc1 [CBK267178] | 115.429 |
| CC1(C)CC(=O)c2c(O)cc(OCC(=O)c3ccc(Cl)c(Cl)c3)cc2O1 [CBK267573] | 96.8476 |
| O=C1/C(=C/NCc2cccnc2)C(c2ccccc2)=NN1c1ccc([N+](=O)[O-])cc1 [CBK262911] | 120.464 |
| COc1ccc(C2(C(=O)NCc3cnc(C)cn3)CC2)cc1 [CBK149830] | 95.8243 |
| CC(C)CN1CCCN(S(=O)(=O)c2ccc(-n3cnc(Cl)c3Cl)cc2)CC1 [CBK063017] | 93.5747 |
| Cc1nc(SCC(N)=O)nc(C)c1CCC(=O)NCc1ccc(F)cc1 [CBK295201] | 108.916 |
| O=C(O)c1cc(S(=O)(=O)Nc2nnc(C(F)(F)F)s2)c(F)cc1Cl [CBK062022] | 101.199 |
| CSCC[C@H](NC(=O)OC(C)(C)C)C(=O)NCc1csc(-c2ccccc2)n1 [CBK092345] | 90.3426 |
| CC(=O)N1CCc2sccc2C1c1ccccc1NCc1ccoc1 (centres unmarked) [CBK286432] | 25.4444 |
| O=C(O)CCSC1=CCS(=O)(=O)c2ccc(Cl)cc21 [CBK013721] | 48.271 |
| Cc1ccc(Nc2nc(N)nc(CSc3nccn3C)n2)cc1 [CBK266468] | 106.373 |
| CCOC(=O)c1sc(Cl)nc1C(F)(F)F [CBK026746] | 75.5397 |
| C[C@@H]1CN(C(=O)OCCn2cccc2)C[C@H](C)O1 [CBK200123] | 96.098 |
| CN1CCC(N(C)C(=O)Nc2cccnc2)C1 (centres unmarked) [CBK156026] | 102.701 |
| O=C(Cn1cnc2ccccc21)N1CCc2[nH]c3ccccc3c2C1 [CBK281860] | 96.7066 |
| CC(C)(C)c1cc(CN)c(C(=O)O)o1 [CBK266510C] | 92.3732 |
| Cc1cc(NC(=O)OCc2cccnc2C)c2ccccc2n1 [CBK200129] | 74.5671 |
| NC(=O)CSc1nnc(-c2cccnc2)n1Cc1ccccc1 [CBK268672] | 81.7638 |
| O=C(Cn1c(=O)oc2ccccc21)Nc1ccc(N2CCOCC2)c(Cl)c1 [CBK270079] | 68.3046 |
| O=C(NC1CCN(c2ncccn2)CC1)c1ccc[nH]c1=S [CBK241695] | 102.925 |

| SMILES | % of control remaining |
| --- | --- |
| CCn1c(=O)c(C=Cc2cccc(Br)c2)nc2cc(C(=O)O)ccc21 [CBK295364] | 104.675 |
| CCCNC(=O)c1ccc(C)c(S(=O)(=O)Nc2ccc(C)cc2C)c1 [CBK269084] | 85.967 |
| O=C(NCC1CCCO1)C1CCN(C(=O)c2cccc(F)c2)CC1 (centres unmarked) [CBK304633] | 86.5866 |
| COC(=O)c1ccccc1NC(=O)CC1Sc2ccccc2NC1=O (centres unmarked) [CBK269400] | 102.162 |
| O=C1CSC2(C(=O)N(Cc3ccccc3)c3ccccc32)N1c1ccccc1 (centres unmarked) [CBK092391] | 117.56 |
| O=C1CCC(=O)N1CCOc1nccnc1OC1CCN(Cc2ccccc2F)CC1 [CBK084337] | 87.3685 |
| O=C(NC1CCCCC1)c1cc(Br)cnc1NCCCn1ccnc1 [CBK076494] | 110.42 |
| O=C(NCCNC1CCC(c2ccccc2)CC1)c1ccc(F)cc1 (centres unmarked) [CBK266857] | 69.3488 |
| S=C(NC1=NCCS1)Nc1ccccc1 [CBK016591] | 20.3086 |
| Clc1ccc(CN2CCC(Oc3cncc(OCCN4CCOCC4)n3)C2)cc1Cl (centres unmarked) [CBK084477] | 48.5896 |
| CCCc1c(C(=O)N2CCN(C)CC2)cnn1-c1cc(Cl)cc(Cl)c1 [CBK107375] | 80.0169 |
| CCc1cccc(CC)c1NC(=O)CN(c1cccc(Br)c1)S(C)(=O)=O [CBK265986] | 83.6515 |
| COc1ccc(N2CCN(CC(=O)N3CCC(C(N)=O)CC3)CC2)cc1 [CBK268993] | 101.853 |
| COc1cc(/C=C2/NC(=O)N(c3cccc(Cl)c3)C2=O)ccc1OCC(=O)Nc1ccc(F)cc1 [CBK265691] | 98.1106 |
| COc1ccc(/C=C(/NC(=O)c2cccc([N+](=O)[O-])c2)C(=O)O)cc1OC [CBK263362] | 113.975 |
| Cc1cc(NS(=O)(=O)c2ccc(Nc3nc(-c4ccc(Cl)cc4Cl)cs3)cc2)no1 [CBK267298] | 80.1051 |
| Cc1nc(-c2cccs2)cc([C@H]2CN3CC[C@H]2C[C@@H]3CNC(=O)c2ccco2)n1 [CBK289127] | 86.0975 |
| COc1cc(Nc2nc(-c3ccc4[nH]ccc4c3)cn3ccnc23)cc(OC)c1OC [CBK038069] | 128.431 |
| O=C(Nc1cccc(-c2ccc3nncn3n2)c1)c1ccc(F)cc1 [CBK287682] | 75.3736 |
| Cc1cc(C)n(CCCN(C)Cc2ccc(N3CCCC3=O)cc2)n1 [CBK281827] | 80.2379 |
| CC(C)c1ccc(OCCc2cc(C3CCN(C(=O)CC4CCCC4)C3)n[nH]2)cc1 (centres unmarked) [CBK286129] | 72.408 |
| CCCC(=O)NC[C@H]1CC[C@H](c2nnc(-c3ccsc3)o2)CC1 [CBK283362] | 113.25 |
| Cc1cc(C)nc(N/N=C/c2cn(-c3ccccc3)nc2-c2ccc([N+](=O)[O-])cc2)n1 [CBK262864] | 85.4015 |
| CCN(C(=O)c1n[nH]c2c1CCC2)C1CCN(C)CC1 [CBK281870] | 105.536 |
| Cc1nc2c(c(N(C)C)n1)CCN(C(=O)C(C)n1cc(Cl)cn1)C2 (centres unmarked) [CBK307293] | 58.8659 |
